Laboratory results taken from publication PMC5892938.
This is one part of the list. At the low end of the ranking the order means little.

What follows are sequences tested against GST-SBP-SLBP (stem-loop binding protein) (UniProt Q14493) (assay: targeted RNA Bind-n-Seq). Settings: RBNS binding buffer: 25 mM Tris pH 7.5, 150 mM KCl, 3 mM MgCl2, 0.1% Tween, 0.5 mg/mL BSA, 1 mM DTT; 27 nM protein, 750 pM RNA pool; temperature not stated; high values mean tight binding.
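Further: DESeq read counts versus GST-SBP nonspecific binding control pulldown.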

Row | Sequence | binding signal (log2 fold change)
1 | GGUCACGUCUCAAUCAACUCAUCGCCAGGAGUUUUCUCCUGUUAACUCAACAGCUCGCAGUCAAG | 0.0248
2 | GGUCACGUCUCAAUCAACUCACUAGAGGGGGGGAAAACCCCUUUGCCCUCAAUCUCAACAGCUCGCAGUCAAG | 0.124
3 | GGUCACGUCUCAAUCAACUCUUCUCCCAGGGAAAGCCCUGGUAAUUUCAACAGCUCGCAGUCAAG | 0.124
4 | GGUCACGUCUCAAUCAACUCAAUCUCCAGGGAAAACCCUGGUAAAUUCAACAGCUCGCAGUCAAG | 0.0922
5 | GGUCACGUCUCAAUCAACUCAACUUCAGGAGUUUGCUCCUGUUUUCUCAACAGCUCGCAGUCAAG | 0.0673
6 | GGUCACGUCUCAAUCAACUCUAACGAGGGGGGGAAAACCCCUUUGCCCUCACUUUCAACAGCUCGCAGUCAAG | -0.0105
7 | GGUCACGUCUCAAUCAACUCAUAAGAGGGGGGGAAAACCCCUUUGCCCUCCAAAUCAACAGCUCGCAGUCAAG | -0.0149
8 | GGUCACGUCUCAAUCAACUCUUCGUCCAGGGAAAGCCCUGGCUAUUUCAACAGCUCGCAGUCAAG | -0.0464
9 | GGUCACGUCUCAAUCAACUCAAUCUCAGGAGUUUACUCCUGCAUUCUCAACAGCUCGCAGUCAAG | 0.2
10 | GGUCACGUCUCAAUCAACUCAUCUCCAGGAGUUUCCUCCUGUUAAUUCAACAGCUCGCAGUCAAG | 0.0425
11 | GGUCACGUCUCAAUCAACUCAUCCCCAGGAGUUUACUCCUGUAUUCUCAACAGCUCGCAGUCAAG | -0.00768
12 | GGUCACGUCUCAAUCAACUCAAUAGAGGGGGGGAAAACCCCUUUACCCUCAACUUCAACAGCUCGCAGUCAAG | -0.15
13 | GGUCACGUCUCAAUCAACUCUAUCUCAGGAGUUUACUCCUGUAUUUUCAACAGCUCGCAGUCAAG | 0.102
14 | GGUCACGUCUCAAUCAACUCUUUUCCCAGGGAAAACCCUGGCAAUGUCAACAGCUCGCAGUCAAG | -0.112
15 | GGUCACGUCUCAAUCAACUCUACUCCCAGGGAAACCCCUGGUUUAUUCAACAGCUCGCAGUCAAG | -0.277
16 | GGUCACGUCUCAAUCAACUCUAAAGAGGGGGGGAAAACCCCUUUACCCUCAUCGUCAACAGCUCGCAGUCAAG | 0.0826
17 | GGUCACGUCUCAAUCAACUCAAUCUCCAGGGAAACCCCUGGCUUUUUCAACAGCUCGCAGUCAAG | 0.107
18 | GGUCACGUCUCAAUCAACUCUUUCUCCAGGGAAAACCCUGGUAUAUUCAACAGCUCGCAGUCAAG | -0.0236
19 | GGUCACGUCUCAAUCAACUCUUUCUCAGGAGUUUCCUCCUGCUUUUUCAACAGCUCGCAGUCAAG | 0.0194
20 | GGUCACGUCUCAAUCAACUCAUUUUCCAGGGAAACCCCUGGCGUAUUCAACAGCUCGCAGUCAAG | -0.0822
21 | GGUCACGUCUCAAUCAACUCUAUCUCCAGGGAAAGCCCUGGCAAUGUCAACAGCUCGCAGUCAAG | -0.0105
22 | GGUCACGUCUCAAUCAACUCUACUUCAGGAGUUUACUCCUGCAUUUUCAACAGCUCGCAGUCAAG | -0.0382
23 | GGUCACGUCUCAAUCAACUCUACUUCCAGGGAAACCCCUGGUAAUUUCAACAGCUCGCAGUCAAG | 0.157
24 | GGUCACGUCUCAAUCAACUCUUUUUCCAGGGAAAGCCCUGGUUAUGUCAACAGCUCGCAGUCAAG | 0.238

Row | Sequence | binding signal (log2 fold change)
25 | GGUCACGUCUCAAUCAACUCUUUCUCCAGGGAAAACCCUGGUAUACUCAACAGCUCGCAGUCAAG | 0.0398
26 | GGUCACGUCUCAAUCAACUCAUAAGAGGGGGGGAAAACCCCUUUGCCCUCAACCUCAACAGCUCGCAGUCAAG | -0.32
27 | GGUCACGUCUCAAUCAACUCAUCCCCCAGGGAAAUCCCUGGCUUACUCAACAGCUCGCAGUCAAG | 0.468
28 | GGUCACGUCUCAAUCAACUCUUCUCCCAGGGAAACCCCUGGUUAACUCAACAGCUCGCAGUCAAG | 0.0809
29 | GGUCACGUCUCAAUCAACUCUUCUUCCAGGGAAACCCCUGGCAAUGUCAACAGCUCGCAGUCAAG | -0.25
30 | GGUCACGUCUCAAUCAACUCAUCUCCCAGGGAAAACCCUGGCAAAUUCAACAGCUCGCAGUCAAG | -0.0157
31 | GGUCACGUCUCAAUCAACUCAAUCGAGGGGGGGAAAACCCCUUUGCCCUCACUAUCAACAGCUCGCAGUCAAG | 0.0533
32 | GGUCACGUCUCAAUCAACUCAUCCGAGGGGGGGAAAACCCCUUUACCCUCAAUAUCAACAGCUCGCAGUCAAG | -0.338
33 | GGUCACGUCUCAAUCAACUCAUUUUCAGGAGUUUUCUCCUGCAAACUCAACAGCUCGCAGUCAAG | -0.0487
34 | GGUCACGUCUCAAUCAACUCCCAAGAGGGGGGGAAAACCCCUUUACCCUCGUUUUCAACAGCUCGCAGUCAAG | -0.00957
35 | GGUCACGUCUCAAUCAACUCAUCGCCCAGGGAAAGCCCUGGUUAUCUCAACAGCUCGCAGUCAAG | -0.0203
36 | GGUCACGUCUCAAUCAACUCUACUCCAGGAGUUUCCUCCUGCUUUUUCAACAGCUCGCAGUCAAG | -0.182
37 | GGUCACGUCUCAAUCAACUCAUCAGAGGGGGGGAAAACCCCUUUACCCUCAAAAUCAACAGCUCGCAGUCAAG | -0.349
38 | GGUCACGUCUCAAUCAACUCUUUAGAGGGGGGGAAAACCCCUUUACCCUCAAUUUCAACAGCUCGCAGUCAAG | -0.226
39 | GGUCACGUCUCAAUCAACUCAGUCUCCAGGGAAAACCCUGGCUUUUUCAACAGCUCGCAGUCAAG | -0.00561
40 | GGUCACGUCUCAAUCAACUCAUCUUCCAGGGAAAGCCCUGGCGUAUUCAACAGCUCGCAGUCAAG | -0.0103
41 | GGUCACGUCUCAAUCAACUCUACGCCAGGAGUUUACUCCUGUAAUUUCAACAGCUCGCAGUCAAG | 0.0688
42 | GGUCACGUCUCAAUCAACUCAGUCUCCAGGGAAACCCCUGGUAUUUUCAACAGCUCGCAGUCAAG | -0.104
43 | GGUCACGUCUCAAUCAACUCACUAGAGGGGGGGAAAACCCCUUUACCCUCAAACUCAACAGCUCGCAGUCAAG | -0.0184
44 | GGUCACGUCUCAAUCAACUCUUCAGAGGGGGGGAAAACCCCUUUGCCCUCCACAUCAACAGCUCGCAGUCAAG | 0.0713
45 | GGUCACGUCUCAAUCAACUCUACUUCAGGAGUUUCCUCCUGUUUUCUCAACAGCUCGCAGUCAAG | -0.16
46 | GGUCACGUCUCAAUCAACUCCCAAGAGGGGGGGAAAACCCCUUUGCCCUCACACUCAACAGCUCGCAGUCAAG | -0.329
47 | GGUCACGUCUCAAUCAACUCCCAAGAGGGGGGGAAAACCCCUUUGCCCUCAAUAUCAACAGCUCGCAGUCAAG | -0.357
